The campaign covered roughly 110,000 compounds. About 230 (0.21%) showed an effect of 50% or more. Some of the results follow.
Target: DPAP1 (Plasmodium falciparum, UniProt Q8IIJ9)
Assay: primary screen, percent inhibition; read by cleavage of a fluorogenic dipeptide substrate; higher = more effect of the substance
Set-up: species or system P. falciparum D10 trophozoite lysates; single well
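Also: 30 min substrate incubation versus DMSO and 10 µM JCP410 controls.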

Chain of DPAP1 (Q8IIJ9 whole entry, looked up): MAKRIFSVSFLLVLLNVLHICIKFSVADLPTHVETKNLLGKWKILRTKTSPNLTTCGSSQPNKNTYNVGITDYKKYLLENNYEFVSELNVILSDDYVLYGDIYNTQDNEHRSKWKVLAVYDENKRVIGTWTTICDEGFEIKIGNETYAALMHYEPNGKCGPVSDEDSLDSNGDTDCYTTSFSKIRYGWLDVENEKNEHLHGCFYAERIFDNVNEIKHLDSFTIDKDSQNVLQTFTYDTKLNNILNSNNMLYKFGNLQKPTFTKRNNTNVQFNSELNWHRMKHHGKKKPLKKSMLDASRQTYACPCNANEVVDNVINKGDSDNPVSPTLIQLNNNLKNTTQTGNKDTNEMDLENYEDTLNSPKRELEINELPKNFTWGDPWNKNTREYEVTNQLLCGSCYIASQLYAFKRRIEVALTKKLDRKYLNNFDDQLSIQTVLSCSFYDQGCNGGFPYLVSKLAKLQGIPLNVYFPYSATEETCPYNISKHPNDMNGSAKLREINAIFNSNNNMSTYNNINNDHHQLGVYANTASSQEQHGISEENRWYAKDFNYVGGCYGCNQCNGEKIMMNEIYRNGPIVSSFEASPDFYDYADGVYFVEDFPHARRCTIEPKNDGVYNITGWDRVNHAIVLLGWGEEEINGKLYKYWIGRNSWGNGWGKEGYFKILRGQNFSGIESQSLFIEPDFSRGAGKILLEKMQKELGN

Going from `CC1CCc2nn(CC(=O)NCc3cccnc3)cc2C1` (stereo not drawn) to `O=C1C=C(NCc2cccnc2)CC(c2ccccc2)C1` (stereo not drawn), the “% Inhibition @ 10 uM” value rises from -1.58% to -0.988%.

Going from `Cc1ccc(S(=O)(=O)N2CCCC2)cc1S(=O)(=O)N1CCCC1` to `CN(CC(=O)N1CCCCCC1)S(=O)(=O)c1cc(Cl)ccc1Cl`, the “% Inhibition @ 10 uM” value falls from 1.52% to -5.95%.

Going from `CC(C)CCNC(=O)c1cc(O)nc2ccc(S(=O)(=O)N3CCCC(C)C3)cc12` (stereo not drawn) to `Cc1cccc(C(=O)Nc2sc3c(c2C(=O)O)CCC3)c1`, the “% Inhibition @ 10 uM” value rises from 2.05% to 6.65%.

First: COc1ccc(OC)c(CCNCc2c(C(=O)O)n(Cc3cccc(F)c3)c3cc(C)ccc23)c1
Second: COc1ccc2c(CNCc3cccc(Cl)c3)c(C(=O)O)n(C)c2c1
The “% Inhibition @ 10 uM” value of the first is higher: -1.08% for the first, -2.39% for the second.

Going from `Cc1ccsc1/C=C1\SC(=S)NC1=O` to `CCN1C(=O)S/C(=C/c2ccc(OC)c(OC)c2OC)C1=O`, the “% Inhibition @ 10 uM” value rises from 1% to 2.22%.

Compared with `Cc1nc(O)nc(O)c1NC(=O)c1cccc2ccccc12`, `Cc1ccccc1-c1nccc2ccccc12` is lower in “% Inhibition @ 10 uM” value: 3.35% for the first, -3.77% for the second.

Compared with `Oc1nc(SCc2ccc(Cl)cc2)nc(O)c1Cc1ccccc1`, `O=C(O)c1ccc(CNC(=O)c2ccc3c(c2)C(=O)N(Cc2ccccc2)C3=O)cc1` is lower in “% Inhibition @ 10 uM” value: -1.64% for the first, -15.1% for the second.

Compared with `CCOC(=O)CN1CCc2ccccc2C1`, `CCC(C)n1c(=O)c2sccc2n2c(CCCC(=O)N3CCc4ccccc4C3)nnc12` (stereo not drawn) is lower in “% Inhibition @ 10 uM” value: 5.13% for the first, -2.15% for the second.

Compared with `CC(C)=C1C2C=CC1C1C(=O)N(c3ccc4c(c3)OCO4)C(=O)C21` (stereo not drawn), `Cc1ccc(N2C(=O)C3C4C=CC(C4)C3C2=O)cc1Cl` (stereo not drawn) is higher in “% Inhibition @ 10 uM” value: -2.54% for the first, 2.44% for the second.

Compared with `O=C(c1ccccc1)c1cc(F)c(F)cc1Cl`, `CC1(C)C(=O)NC(=O)N1C(=O)c1ccccc1` is higher in “% Inhibition @ 10 uM” value: -3.63% for the first, -3.33% for the second.

Compared with `COCCCNC(=O)Cn1ncc2c1-c1cc(C)ccc1OC2`, `CCCCSCCCNC(=O)CN1CCN(Cc2ccc(C)cc2)C1=O` is higher in “% Inhibition @ 10 uM” value: -3.84% for the first, 0.718% for the second.

Compared with `Cc1nn(C)cc1CNC(=O)c1cccc(Br)c1`, `O=C(Nc1cc(Br)cc2cccnc12)c1cccc(Cl)c1` is higher in “% Inhibition @ 10 uM” value: -6.44% for the first, -1.65% for the second.

Compared with `Nc1nnc(N2CCCC2)s1`, `CCCN1CCC(N2CCCC(C(N)=O)C2)CC1` (stereo not drawn) is higher in “% Inhibition @ 10 uM” value: -4.99% for the first, -1.21% for the second.

Compared with `CCO/C(O)=C1/C(C)=Nc2nc(SCC(C)C)nn2C1c1ccccc1C` (stereo not drawn), `Cc1nnc(O)c2nn(-c3ccccc3)c(C)c12` is higher in “% Inhibition @ 10 uM” value: -4.79% for the first, -0.0309% for the second.

Going from `CC(C(=O)NC(C)C12CC3CC(CC(C3)C1)C2)n1sc2ccccc2c1=O` (stereo not drawn) to `Cc1cc(C)c2c(n1)SCC(=O)N2CC(=O)NC(C)C12CC3CC(CC(C3)C1)C2` (stereo not drawn), the “% Inhibition @ 10 uM” value rises from -0.0739% to 5.73%.

First: Cc1ccc(NC(=O)CN2CCN(Cc3ccccc3)CC2)cc1Cl
Second: COc1ccc(CN2CCN(Cc3ccccc3)CC2)cc1
The “% Inhibition @ 10 uM” value of the first is higher: 1.7% for the first, -2.03% for the second.

First: CCOC(=O)c1sc(NC(=O)c2cccnc2)nc1C
Second: CCOC(=O)c1sc(C)c(C(=O)NCCc2ccccc2)c1N
The “% Inhibition @ 10 uM” value of the first is lower: -0.053% for the first, 20.5% for the second.

`CS(=O)(=O)C1=NSC2=NC(=O)/C(=C\c3ccc(OS(=O)(=O)c4ccccc4)cc3)C(=N)N21` and `CS(=O)(=O)Oc1ccc(/C=C2/C(=N)N3C(=NC2=O)SN=C3S(C)(=O)=O)cc1` are the same in “% Inhibition @ 10 uM” value: -3.39% for the first, -3.39% for the second.

Compared with `Cc1cc(Cl)ccc1N(CC(=O)NCCSc1ccccc1)S(C)(=O)=O`, `Cc1ccc(CNC(C)c2ccccc2)cc1` (stereo not drawn) is higher in “% Inhibition @ 10 uM” value: -6.27% for the first, 0.722% for the second.

Compared with `Cc1ccc(-c2c[n+]([O-])c3c([n+]2[O-])CCCC3)cc1`, `COc1ccc(-c2nc3cc(C)ccc3o2)cc1` is lower in “% Inhibition @ 10 uM” value: 0.147% for the first, -4.16% for the second.

Going from `O=[N+]([O-])c1ccc(CN2CCC3(C=Cc4ccccc43)CC2)s1` to `O=C(c1ccc(Br)o1)N1CCC(Cc2ccccc2)CC1`, the “% Inhibition @ 10 uM” value falls from 1.74% to -3.45%.

Going from `Cc1ccccc1OCC(=O)Nc1ccc(NC(=O)c2cccs2)cc1` to `CCOc1ccc(NS(=O)(=O)c2ccc(NC(=O)c3ccco3)cc2)cc1`, the “% Inhibition @ 10 uM” value rises from -3.04% to 1.84%.

Going from `Cc1cc(C)c(OCC(O)CNC(C)C)c(C)c1` (stereo not drawn) to `COCc1cc(C)nc(SCC(=O)Nc2ccc(Br)c(C)c2)c1C#N`, the “% Inhibition @ 10 uM” value falls from -1.45% to -8.9%.

Going from `CN(C)C(=S)NC1(C)CCS(=O)(=O)C1` (stereo not drawn) to `COC(=O)NC1CCS(=O)(=O)C1` (stereo not drawn), the “% Inhibition @ 10 uM” value rises from -2.65% to 7.26%.

First: CCc1c(C)c(C#N)c2nc3ccccc3n2c1NCCN(C)C
Second: CCOc1ccc(-n2cc(-c3ccccc3)c3c(NCCCN(C)C)ncnc32)cc1
The “% Inhibition @ 10 uM” value of the first is higher: 2.09% for the first, 0.426% for the second.

Going from `O=C(O)c1cc(NC(=O)c2ccc([N+](=O)[O-])cc2)cc(C(=O)O)c1` to `COc1cccc(NC(=O)c2sc(-c3ccccc3)nc2-c2ccc([N+](=O)[O-])cc2)c1`, the “% Inhibition @ 10 uM” value falls from -3.52% to -6.82%.

First: Nc1ccc(-c2nc(-c3ccccc3)c3ccccc3n2)cc1
Second: CC(=O)c1ccc(N2C(=O)/C(=C/c3ccccc3F)N=C2c2ccccc2)cc1
The “% Inhibition @ 10 uM” value of the first is higher: 4.57% for the first, -3.35% for the second.

Compared with `COc1ccc2c(c1)C(=O)N(c1ccc(C)cc1C)C(=O)C2`, `COc1cccc2cc(S(=O)(=O)c3ccc(C)cc3)c(=O)oc12` is lower in “% Inhibition @ 10 uM” value: 0.431% for the first, -3.1% for the second.

Compared with `CC1CCc2cc(F)ccc2N1S(=O)(=O)c1ccc(Cl)nc1` (stereo not drawn), `O=C(NCc1cccnc1)C1CCN(c2ncnc3c2sc2cccc(F)c23)CC1` is lower in “% Inhibition @ 10 uM” value: 3.66% for the first, -0.637% for the second.

Compared with `CC(C)C(=O)n1nc(-c2ccco2)nc1NCc1ccc(Cl)cc1`, `Cc1ccc2c(=O)cc(C(=O)N(Cc3ccc(Cl)cc3)Cc3ccco3)oc2c1` is higher in “% Inhibition @ 10 uM” value: -1.47% for the first, 1.9% for the second.

First: N=C(NOC(=O)Cc1cccs1)c1ccccn1
Second: CCOc1ccccc1NC(=O)c1ccc(Cl)s1
The “% Inhibition @ 10 uM” value of the first is lower: -3.13% for the first, 2.36% for the second.

Compared with `Nc1ccc(NC=C2C(=O)CC(c3ccccc3)CC2=O)cc1` (stereo not drawn), `OC1=C2C(=Nc3ccccc3NC2c2cccs2)CC(c2ccccc2)C1` (stereo not drawn) is lower in “% Inhibition @ 10 uM” value: 5.58% for the first, -3.77% for the second.

First: c1cc2c(cc1-c1nnc(CN3CCC4(CC3)OCCO4)o1)OCO2
Second: CC1(C)Cc2c(c(-c3ccco3)nc3sc4c(NCCN5CCOCC5)ncnc4c23)CO1
The “% Inhibition @ 10 uM” value of the first is higher: 2% for the first, 1.89% for the second.

Compared with `COc1ccc(C2=C/C(=C/c3cccc(OC)c3OC)C(=O)O2)c(OC)c1`, `COc1ccc(C(=O)NC2(Cc3cc(OC)ccc3OC)N=C3C(C)=CC=CN3C2=O)cc1` (stereo not drawn) is higher in “% Inhibition @ 10 uM” value: 1.52% for the first, 2.65% for the second.

First: CSc1ccc(C2C(C#N)=C(N)OC3=C2C(=O)CCC3)cc1 (stereo not drawn)
Second: O=C1NC(c2ccc(O)cc2)Nc2ccccc21 (stereo not drawn)
The “% Inhibition @ 10 uM” value of the first is higher: 1.96% for the first, -2.97% for the second.

Going from `O=C(O)Cn1ncn2c(c(-n3cccc3)c3c4c(sc32)CCCC4)c1=O` to `CCCn1c2ccccc2c2cnn(CC(=O)NCCc3ccsc3)c(=O)c21`, the “% Inhibition @ 10 uM” value rises from -1.6% to 3.95%.

Compared with `c1cncc(CNc2cccc3ccccc23)c1`, `O=S1(=O)N=C(NCc2ccccc2)c2ccccc21` is higher in “% Inhibition @ 10 uM” value: -3.82% for the first, -1.05% for the second.

First: CS(=O)(=O)N(CC(=O)N1CCCC1)c1ccc(C23C[C@H]4C[C@@H](C2)C[C@@H](C3)C4)cc1
Second: O=C(O)CCNC(=O)NC12CC3CC(CC(C3)C1)C2
The “% Inhibition @ 10 uM” value of the first is lower: -4.43% for the first, 2.58% for the second.

First: CC(=O)N1CCC(NCc2ccccc2Cl)CC1
Second: COc1ccc2c(CNC3CCCCCC3)c(C(=O)O)n(Cc3ccccc3C)c2c1
The “% Inhibition @ 10 uM” value of the first is higher: 1.57% for the first, -2.26% for the second.

First: O=c1c2c(n3nnnc3n1Cc1ccccc1)-c1ccccc1CC21CCCC1
Second: O=C(c1ccccc1)N1CCN(C(=O)c2cc3nc(-c4ccccc4)cc(C(F)(F)F)n3n2)CC1
The “% Inhibition @ 10 uM” value of the first is lower: -5.78% for the first, -3.24% for the second.

Going from `COc1cc(C(=O)N2CCN(c3cccc(Cl)c3)CC2)cc(OC)c1OC` to `CCOC(=O)N1CCN(C(=O)Nc2cnc3ccccc3c2O)CC1`, the “% Inhibition @ 10 uM” value falls from 4.37% to -1.07%.

Compared with `CC(C)NC(=O)C(CCO)NC(C)C` (stereo not drawn), `Cn1c(=O)c2c(nc(NCCO)n2CCCc2ccccc2)n(C)c1=O` is lower in “% Inhibition @ 10 uM” value: -2.18% for the first, -5.08% for the second.

Going from `O=C(O)c1ccc(N2C(=O)CC(N3CCN(c4ccc(F)cc4)CC3)C2=O)cc1` (stereo not drawn) to `Cc1ccc(C(=O)N/C(=C/c2ccccc2F)C(=O)N2CCCCC2)cc1`, the “% Inhibition @ 10 uM” value rises from -1.38% to 0.317%.

First: O=C(NCc1ccccc1)c1ccc2c(O)c(S(=O)(=O)c3ccccc3)c(O)nc2c1
Second: CC1=C(C(=O)Nc2ccccc2)C(c2ccc(Cl)cc2Cl)C(C(=O)Nc2ccccc2)=C(C)N1
The “% Inhibition @ 10 uM” value of the first is lower: -2.26% for the first, 5.37% for the second.

First: Cc1cc2c(Cc3ccc(Br)cc3)nnc(O)c2c(O)n1
Second: Cc1ccc(CSc2nnc(C)n3c2cc2oc(C)cc23)cc1
The “% Inhibition @ 10 uM” value of the first is higher: 6.61% for the first, -4.37% for the second.

Compared with `C=CCN1C(=O)C(Cc2ccc(OC)cc2)S/C1=N/N=C/c1ccco1` (stereo not drawn), `COc1ccc(CNC(=O)c2cc3c(=O)n4cccc(C)c4nc3n2C)cc1` is lower in “% Inhibition @ 10 uM” value: 4.95% for the first, 4.73% for the second.

First: CC(=O)c1c(C)[nH]c(C(=O)NCC2COc3ccccc3O2)c1C (stereo not drawn)
Second: CC(=O)c1ccc(NC(=O)c2cc(-c3ccc(C)o3)nc3ccccc23)cc1
The “% Inhibition @ 10 uM” value of the first is lower: -12.3% for the first, 1.28% for the second.

Going from `COc1ccc(-n2cnc3cc(C(=O)NCc4cccnc4)ccc32)cc1` to `COc1cccc(CN(C(=O)/C=C/c2ccco2)C2CCS(=O)(=O)C2)c1` (stereo not drawn), the “% Inhibition @ 10 uM” value falls from 1.2% to 0.366%.

Compared with `OCCN1CCN(CCO)CC1`, `Cc1ccc2oc(-c3ccccc3)c/c(=N\CCCO)c2c1` is higher in “% Inhibition @ 10 uM” value: 2.17% for the first, 5.44% for the second.

Going from `COc1ccc(NC(=O)C2C3C=CC(O3)C2C(=O)O)c(OC)c1` (stereo not drawn) to `CO[C@H](Cc1ccccc1O)[C@@H](O)c1ccccc1`, the “% Inhibition @ 10 uM” value falls from 1.88% to -7.63%.

First: NS(=O)(=O)c1ccc(NC2=NC(=O)C(CC(=O)Nc3ccc(Cl)cc3)S2)cc1 (stereo not drawn)
Second: N#Cc1ccc(Oc2ccc(C(F)(F)F)cn2)cc1
The “% Inhibition @ 10 uM” value of the first is higher: 2.01% for the first, -3.49% for the second.
